# Assay results reported in PubChem BioAssay AID662 (National Center for Advancing Translational Sciences (NCATS), 2007).
# Where “and” joins values, the source holds several entries; their conditions need not be identical. Equal values may be shown once. Among all 71,000 compounds or so, about 1,800 (2.5%) were called active. This list was built around the results that the source calls inconclusive (neither active nor inactive); the mix of calls is not that of the screen. The call rests on the fitted dose curve; in most records, active means well fitted activation curve with a large enough effect in the signal ratio, with a control signal flat (not every such curve was filed as active); inconclusive means small, poorly fitted or top-dose-only effect, or effect the other way, or a change in a side signal; inactive means flat fitted curve, though single readings scatter; the % refers to the signal ratio. Where the call is inconclusive, the potency comes from a doubtful curve fit.
# Experiment: Cell signaling CRE-BLA (Fsk stim); on activity change, negative = inhibition: % of control where 0% means no effect
# Settings: CHO CRE-bla reporter (cAMP response element driving beta-lactamase), forskolin EC10, beta-lactamase ratio
# Method in brief: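 The 460nm/530nm emission ratio after CCF4 loading defined %Activity, from which AC50 values were obtained. CRE-bla CHO cells received compound dilution series together with an EC10 level of NKH 477 for 3 hours at 37 degrees Celsius.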
# [1] = activity change, negative = inhibition: at 38.2 µM (top of the series) unless noted
# Potency means the concentration at half of the fitted maximal effect; tags describe the fitted curve by direction and shape.
compound,measurement,setting,value
CN(C)c1ccc(-c2cc(-n3ccnc3)ncn2)cc1,Potency,[1],active: 10 µM
COc1ccc(OC)c(-n2cc3c(=O)n(C)c(=O)n(C)c3c2)c1,Potency,[1],"inconclusive: 10 µM [rising, single point]"
C=CC(C)(C)c1[nH]c2ccccc2c1C1=C(O)C(=O)C(c2c[nH]c3c(CC=C(C)C)cccc23)=C(O)C1=O,Potency,[1],"inconclusive: 6.31 µM [falling, full curve, poor fit]"
COc1cccc(-c2nc(N3CCN(C)CC3)c3ccccc3n2)c1,"activity change, negative = inhibition",[1],inconclusive: 14.5%
COc1cc(C(=O)Nc2nc(OC)c(-c3ccccc3)c(OC)n2)cc(OC)c1OC,Potency,[1],"inconclusive: 1.58 µM [rising, full curve]"
CNC1=C(Br)C(=O)c2ccncc2C1=O,"activity change, negative = inhibition",[1],inconclusive: -10.8%
CC(CSc1nc2ccccc2s1)Cn1c(N2CCCC2)nc2c1c(=O)[nH]c(=O)n2C (stereo unspecified),Potency,[1],"inconclusive: 2 µM [rising, partial curve]"
COc1ccc(C(=O)N2c3ccc(F)cc3CCC2C)cc1OC (stereo unspecified),"activity change, negative = inhibition",[1],inconclusive: 12.9%
CCOc1cccc(OCCCCn2ccnc2)c1,"activity change, negative = inhibition",[1],inactive
COc1cc(SC)ccc1C(=O)Nc1ccc2c(c1)CCN2S(C)(=O)=O,Potency,[1],"inconclusive: 12.6 µM [rising, single point]"
Cc1nn(S(=O)(=O)N(C)C)c(C)c1CN1C(=O)c2ccccc2C1=O,Potency,[1],"inconclusive: 3.16 µM [rising, single point]"
O=C1c2cccnc2C(O)N1Cc1ccc(F)cc1 (stereo unspecified),"activity change, negative = inhibition",[1],inconclusive: -23.9%
Cc1ccc(S(=O)(=O)NCC(=O)OC2CCOC2=O)cc1 (stereo unspecified),"activity change, negative = inhibition",[1],inactive
C=C(C)CN(CC#N)CC(=C)C,"activity change, negative = inhibition",[1],inactive: 4.02% [at 7.6 µM]
CCn1cc(C(=O)NCc2cccs2)c(=O)c2ccc(C)nc21,"activity change, negative = inhibition",[1],inconclusive: 29.3%
CC(=O)N1CCN(CC(O)COc2ccc(OCc3ccccc3)cc2)CC1 (stereo unspecified),Potency,[1],"inconclusive: 0.0251 µM [rising, full curve, poor fit]"
O=S(c1ccccc1)c1ccc2nnnn2n1 (stereo unspecified),Potency,[1],"inconclusive: 25.1 µM [rising, partial curve]"
O=C(CCc1ccccc1)Nc1nc2n(n1)C(c1ccc(Cl)cc1)CC(=O)N2 (stereo unspecified),"activity change, negative = inhibition",[1],inconclusive: -8.32%
COC(=O)c1ccc(Oc2nc(NC(C)C)nc(N(C)C)n2)cc1,"activity change, negative = inhibition",[1],inactive
CCn1c(=N)c(C(=O)OC)cc2c(=O)n3ccccc3nc21,Potency,[1],active: 10 µM
CCc1cc2c(=O)c(Oc3ccccc3F)c(C)oc2c(CN(C)C)c1O,"activity change, negative = inhibition",[1],inactive
Cc1cc(=O)oc2c(CN3CCOCC3)c(O)ccc12,"activity change, negative = inhibition",[1],inconclusive: 14.2%
Cc1ccc(NC(=O)c2cc(N(C)C)ccc2[P+](=O)O)cc1,"activity change, negative = inhibition",[1],inconclusive: 4.5%
Cc1[nH]c2ccccc2c(=O)c1CN1CCCCC1,"activity change, negative = inhibition",[1],inconclusive: -3.5% [at 7.6 µM]
CC(C)c1nc(=S)c2ccccc2[nH]1,Potency,[1],"inconclusive: 5.01 µM [rising, single point]"
COc1ccc(-n2c(SCC(=O)NCC3CCCO3)nc3n[nH]c(C)c3c2=N)cc1 (stereo unspecified),Potency,[1],"inconclusive: 10 µM [rising, partial curve]"
N[C@@H](C(=O)O)c1ccc(C(=O)O)cc1,"activity change, negative = inhibition",[1],inconclusive: -10.9%
same,"activity change, negative = inhibition",at 38.2 µM (top of the series),inactive: -3.78%
O=C(c1ccccc1)c1ccc2nc(N3CCCCC3)c3nncn3c2c1,Potency,[1],"inconclusive: 12.6 µM [rising, partial curve]"
COc1cccc(-c2ccc(-c3noc(-c4ccccc4F)n3)c(OC)n2)c1,"activity change, negative = inhibition",[1],inactive
CCCc1nc(SCc2ccccn2)c2c(=O)n(C)c(=O)n(C)c2n1,Potency,[1],active: 5.01 µM
COC(=O)c1ccc(C(NC(=O)OCc2ccccc2)/C(C)=C/[C@@H](C)C(=O)NCCN2CCOCC2)cc1 (stereo partly specified),"activity change, negative = inhibition",[1],inactive
CCn1c(SCC(=O)N2c3ccccc3Sc3ccccc32)nc2c1c(=O)n(C)c(=O)n2C,"activity change, negative = inhibition",[1],inactive
O=C(CCCCn1c(=O)c2ccccc2n(CC(=O)Nc2ccccc2)c1=O)NCc1ccco1,"activity change, negative = inhibition",[1],inactive
COc1ccc(S(=O)(=O)N2CCN(Cc3ccccc3)CC2)cc1,"activity change, negative = inhibition",[1],inconclusive: -19.5%
CCn1c(SCC(=O)Nc2cc(OC)ccc2OC)nnc1C1CCCCC1,Potency,[1],"inconclusive: 0.1 µM [falling, single point]"
O=S(=O)(CCSc1nc2ccccc2o1)c1nc2ccccc2s1,"activity change, negative = inhibition",[1],inconclusive: -19.8%
Cc1ccc(S(=O)(=O)CC(=O)N(C)C)cc1,"activity change, negative = inhibition",[1],inactive
CC(NC(=O)CSc1n[nH]c(=O)n1C1CC1)C12CC3CC(CC(C3)C1)C2 (stereo unspecified),"activity change, negative = inhibition",[1],inactive
C[C@@H]1CNCCN1S(=O)(=O)c1cccc2cnccc12,Potency,[1],"inconclusive: 6.31 µM [falling, partial curve]"
same,"activity change, negative = inhibition",[1],inconclusive: -25.3% and inconclusive: -27.3%
COc1ccc(/C=N/n2c(SC)nnc2-c2ccccc2)c(OC)c1OC,Potency,[1],"inconclusive: 10 µM [rising, partial curve]"
O=C(O)c1cc2ccccc2c(Cc2cc3ccccc3c(C(=O)O)c2O)c1O (tested in a mixture with another compound),"activity change, negative = inhibition",[1],inconclusive: -12.7% [at 17.1 µM]
CN(C)c1ccnc(NCc2ccccc2)c1C#N,"activity change, negative = inhibition",[1],inconclusive: 29.8%
O=S(=O)(Nc1ccc2c(c1)OCCO2)c1ccc2oc3ccccc3c2c1,"activity change, negative = inhibition",[1],inconclusive: -8.02%
Cc1ccc(C)c(-n2c(Cc3cc(=O)[nH]c(=O)[nH]3)nnc2SCC(=O)NCc2ccco2)c1,"activity change, negative = inhibition",[1],inconclusive: -1.38%
COc1cc(-c2nnc(SCc3ccccc3Cl)o2)cc(OC)c1OC,Potency,[1],active: 3.98 µM
CCn1c(SCC(=O)Nc2nnc(C)s2)nc2c(c1=O)SC(C)C2 (stereo unspecified),Potency,[1],"inconclusive: 12.6 µM [rising, single point]"
COc1ccc(CCn2c(=N)c(C(=O)N3CCN(C)CC3)cc3c(=O)n4ccccc4nc32)cc1,Potency,[1],active: 12.6 µM
Cc1cnc(CNc2cc(-c3ccc4c(c3)OCO4)ncn2)cn1,Potency,[1],"inconclusive: 10 µM [rising, single point]"
CCOC(=O)CNS(=O)(=O)c1c(C)noc1C,"activity change, negative = inhibition",[1],inconclusive: 16.9%
O=C(O)c1cc(-c2cccs2)nc2cc3c(cc12)OCCO3,Potency,[1],"inconclusive: 12.6 µM [rising, single point]"
Cc1nn(-c2ccccc2)c(C)c1C(=O)OCC(=O)Nc1ccc2c(c1)OCO2,"activity change, negative = inhibition",[1],inconclusive: 18.5%
COCCn1c(=O)cnc2cnc(N(C)C)nc21,Potency,[1],"inconclusive: 15.8 µM [rising, single point]"
COC(=O)NCC(c1cccnc1)N1CCOCC1 (stereo unspecified),Potency,[1],"inconclusive: 10 µM [rising, partial curve]"
COc1ccccc1-n1cnc2cc(NCc3ccco3)ccc21,Potency,[1],active: 12.6 µM
Cc1sc2ncnc(SCC(=O)N3CCN(C(=O)c4ccco4)CC3)c2c1C,Potency,[1],"inconclusive: 20 µM [rising, single point]"
Cc1cnnc2c1-c1nonc1CC2,"activity change, negative = inhibition",[1],inconclusive: 1.4%
Cc1noc(C)c1S(=O)(=O)N1CCCC(C(=O)NCCc2ccccc2)C1 (stereo unspecified),"activity change, negative = inhibition",[1],inactive
CCOC(=O)c1ccoc1CSCc1ccc(C(=O)OC)o1,Potency,[1],"inconclusive: 5.01 µM [falling, single point]"
OC1(Cc2ccn[nH]2)CCCCC1,"activity change, negative = inhibition",[1],inconclusive: 12.2%
C=CC(C)n1c(Br)nc2c1c(=O)[nH]c(=O)n2C (stereo unspecified),Potency,[1],"inconclusive: 12.6 µM [rising, single point]"
COc1ccc(NC(=O)N2CCCC3(CCNCC3)C2)cc1,"activity change, negative = inhibition",[1],inactive
COC(=O)c1sc(N)c(C(=O)OC)c1COC(=O)c1c(C)noc1C,Potency,[1],"inconclusive: 12.6 µM [rising, single point]"
Cc1cnc(CNc2nc(-c3c(C)noc3C)nc3ccccc23)cn1,Potency,[1],"inconclusive: 12.6 µM [rising, single point]"
COCCN1Cc2cccc(C(=O)Nc3cc(C)cc(C)c3)c2C1=O,"activity change, negative = inhibition",[1],inactive
Clc1ccc(-c2nnc3sc(-c4ccc(Br)o4)nn23)c(Cl)c1,"activity change, negative = inhibition",[1],inconclusive: -15.7%
CCCCCCn1c(CN2CCN(C(=O)OCC)CC2)nc2c1c(=O)n(C)c(=O)n2C,Potency,[1],"inconclusive: 25.1 µM [rising, single point]"
CS(=O)(=O)N1CCC2(CC1)CN(C(c1ccccc1)c1ccccc1)C2,"activity change, negative = inhibition",[1],inactive
Cc1nn(Cc2ccccc2)c2c1C(c1ccncc1)C(C#N)=C(N)O2 (stereo unspecified),"activity change, negative = inhibition",[1],inconclusive: 6.29% [at 7.6 µM]
Cc1cc(C(=O)O)c(=O)[nH]c1C,"activity change, negative = inhibition",[1],inactive
CC(=O)c1ccc(NC(=O)N[C@@H](Cc2ccccc2)C(=O)O)cc1,"activity change, negative = inhibition",[1],inconclusive: 18.9%
COC(=O)c1ccc(CSc2nc(N)cc(N)n2)cc1,Potency,[1],"inconclusive: 15.8 µM [rising, single point]"
Cc1ccc(Nc2cc(-n3nc(C)cc3C)ncn2)c(C)c1,"activity change, negative = inhibition",[1],inconclusive: 11.6% [at 7.6 µM]
O=C(Nc1cnn(Cc2ccc(Cl)cc2Cl)c1)c1noc2c1CCCC2,"activity change, negative = inhibition",[1],inactive
COc1ccc(NC(=O)c2ccco2)cc1NC(=O)c1cc2ccccc2o1,Potency,[1],"inconclusive: 12.6 µM [rising, single point]"
COc1cc2c(C(=O)N3CCN(Cc4ccc5c(c4)OCO5)CC3)cn(C)c(=O)c2cc1OC,Potency,[1],"inconclusive: 7.94 µM [rising, partial curve]"
CCn1c(SCC(=O)Nc2ccc3c(c2)c2ccccc2n3CC)nnc1-c1cnccn1,Potency,[1],"inconclusive: 25.1 µM [rising, single point]"
COC(=O)c1cc(OC)c(OC)cc1NC(=O)c1ccco1,Potency,[1],active: 1.58 µM
CCN1CCN(c2ncc3c(n2)CC(c2ccc(OC)c(OC)c2)CC3=O)CC1 (stereo unspecified),"activity change, negative = inhibition",[1],inconclusive: 18.1%
Cc1c(Cc2ccccc2)c(=O)oc2c(CN(C)C)c(O)c(Cl)cc12,Potency,[1],active: 10 µM
